According to the supplement of paper PMC10369915:
This is one part of the list. No stated cut-off is given here; in the data, active = 3.2 or more and inactive = the rest. The signal is at background level for most entries.

Columns and labels:
Experiment in all cases: enrichment score (SH2-bound / input frequency) (ratio); bacterial display of known human phosphotyrosine sites (pTyr-Var adds point mutants) read by sequencing; higher = stronger binding; tyrosines were phosphorylated by kinases first
Conditions in all cases: peptide library: pTyr-Var
SHP2 C-SH2 domain E139D = target: SHP2 C-SH2 domain E139D
[1] = target: SHP2 C-SH2 domain wild-type
SHP2 N-SH2 domain L43F = target: SHP2 N-SH2 domain L43F
SHP2 N-SH2 domain T42A = target: SHP2 N-SH2 domain T42A
SHP2 N-SH2 domain T52S = target: SHP2 N-SH2 domain T52S
[2] = target: SHP2 N-SH2 domain wild-type

Measured: enrichment score
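Further: displayed peptides selected on beads carrying the immobilized SH2 domain, with library peptides lacking any tyrosine serving as negative controls.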

IHETTHNSIMK [ACTA1_Y281_Y281H]
inactive: SHP2 C-SH2 domain E139D 0.888 | [1] 0.693 | SHP2 N-SH2 domain L43F 0.845 | SHP2 N-SH2 domain T42A 0.717 | SHP2 N-SH2 domain T52S 0.75 | [2] 0.961

GRRNTYYASIA [ACADM_Y352]
inactive: SHP2 C-SH2 domain E139D 0.271 | [1] 0.234 | SHP2 N-SH2 domain L43F 0.2 | SHP2 N-SH2 domain T42A 0.326 | SHP2 N-SH2 domain T52S 0.227 | [2] 0.222

EVKEAYMGSVL [ACAT1_Y90_N93S]
inactive: SHP2 C-SH2 domain E139D 0.602 | [1] 0.579 | SHP2 N-SH2 domain L43F 0.66 | SHP2 N-SH2 domain T42A 0.614 | SHP2 N-SH2 domain T52S 0.566 | [2] 0.602

HNMPIYEGYAL [ACTA1_Y168_V165M]
inactive: SHP2 C-SH2 domain E139D 0.84 | [1] 0.947 | SHP2 N-SH2 domain L43F 0.692 | SHP2 N-SH2 domain T42A 0.701 | SHP2 N-SH2 domain T52S 0.902 | [2] 0.75

GRRNTYFASIA [ACADM_Y352_YF]
inactive: SHP2 C-SH2 domain E139D 0.383 | [1] 0.241 | SHP2 N-SH2 domain L43F 0.298 | SHP2 N-SH2 domain T42A 0.309 | SHP2 N-SH2 domain T52S 0.388 | [2] 0.368

AAARPYHIQKW [ACSBG1_Y677]
inactive: SHP2 C-SH2 domain E139D 1.55 | [1] 1.29 | SHP2 N-SH2 domain L43F 1.31 | SHP2 N-SH2 domain T42A 1.32 | SHP2 N-SH2 domain T52S 1.5 | [2] 1.16

RAHARYCADAC [ACOT4_Y52_R57C]
inactive: SHP2 C-SH2 domain E139D 1.08 | [1] 1.1 | SHP2 N-SH2 domain L43F 0.959 | SHP2 N-SH2 domain T42A 0.909 | SHP2 N-SH2 domain T52S 1.01 | [2] 1.02

RDLTDYLMKIL [ACTA1_Y190]
inactive: SHP2 C-SH2 domain E139D 2.2 | [1] 2.23 | SHP2 N-SH2 domain L43F 2.22 | SHP2 N-SH2 domain T42A 2.36 | SHP2 N-SH2 domain T52S 2.28 | [2] 2.21

LTERGYSFVTT [ACTA1_Y200]
inactive: SHP2 C-SH2 domain E139D 0.946 | [1] 2.07 | SHP2 N-SH2 domain L43F 0.772 | SHP2 N-SH2 domain T42A 1.48 | SHP2 N-SH2 domain T52S 0.713 | [2] 0.784

HNMPIYEGFAL [ACTA1_Y168_V165M_YF]
inactive: SHP2 C-SH2 domain E139D 1.42 | [1] 0.796 | SHP2 N-SH2 domain L43F 1.14 | SHP2 N-SH2 domain T42A 1.12 | SHP2 N-SH2 domain T52S 1.16 | [2] 1.04

SLEKSYKLPDG [ACTA1_Y242_E243K]
inactive: SHP2 C-SH2 domain E139D 0.697 | [1] 0.64 | SHP2 N-SH2 domain L43F 0.662 | SHP2 N-SH2 domain T42A 0.649 | SHP2 N-SH2 domain T52S 0.725 | [2] 0.639

IRKVLYANNVM [ACTA1_Y296_D294V]
inactive: SHP2 C-SH2 domain E139D 0.719 | [1] 0.857 | SHP2 N-SH2 domain L43F 0.818 | SHP2 N-SH2 domain T42A 1.54 | SHP2 N-SH2 domain T52S 0.815 | [2] 0.94

ASMAKYFASGI [ACADSB_Y372_E376G_YF]
inactive: SHP2 C-SH2 domain E139D 0.663 | [1] 0.632 | SHP2 N-SH2 domain L43F 0.634 | SHP2 N-SH2 domain T42A 0.666 | SHP2 N-SH2 domain T52S 0.646 | [2] 0.692

INASGYRIGPA [ACSM1_Y477]
inactive: SHP2 C-SH2 domain E139D 0.799 | [1] 0.787 | SHP2 N-SH2 domain L43F 0.795 | SHP2 N-SH2 domain T42A 0.651 | SHP2 N-SH2 domain T52S 0.836 | [2] 0.868

PIYEGYALPHA [ACTA1_Y171]
inactive: SHP2 C-SH2 domain E139D 0.677 | [1] 0.711 | SHP2 N-SH2 domain L43F 0.711 | SHP2 N-SH2 domain T42A 0.638 | SHP2 N-SH2 domain T52S 0.771 | [2] 0.788

PIAPVYAPSMV [ACAT1_Y331_A333P]
inactive: SHP2 C-SH2 domain E139D 1.16 | [1] 1.04 | SHP2 N-SH2 domain L43F 0.917 | SHP2 N-SH2 domain T42A 0.774 | SHP2 N-SH2 domain T52S 0.967 | [2] 0.929

MIAIRYSHSRR [ACOXL_Y260_T255M]
inactive: SHP2 C-SH2 domain E139D 0.243 | [1] 0.292 | SHP2 N-SH2 domain L43F 0.324 | SHP2 N-SH2 domain T42A 0.22 | SHP2 N-SH2 domain T52S 0.26 | [2] 0.291

LTKQEYDEAGP [ACTA1_Y364_I359L]
inactive: SHP2 C-SH2 domain E139D 0.511 | [1] 0.587 | SHP2 N-SH2 domain L43F 0.48 | SHP2 N-SH2 domain T42A 0.407 | SHP2 N-SH2 domain T52S 0.423 | [2] 0.504

HNVPIYEGFAL [ACTA1_Y168_YF]
inactive: SHP2 C-SH2 domain E139D 0.998 | [1] 0.876 | SHP2 N-SH2 domain L43F 1.11 | SHP2 N-SH2 domain T42A 0.842 | SHP2 N-SH2 domain T52S 1.05 | [2] 1.06

DKTGEYPVPLT [ACADM_Y73_I78T]
inactive: SHP2 C-SH2 domain E139D 0.605 | [1] 0.502 | SHP2 N-SH2 domain L43F 0.607 | SHP2 N-SH2 domain T42A 0.734 | SHP2 N-SH2 domain T52S 0.689 | [2] 0.715

MSNVPYVMNRG [ACAT1_Y161]
inactive: SHP2 C-SH2 domain E139D 0.848 | [1] 0.704 | SHP2 N-SH2 domain L43F 0.851 | SHP2 N-SH2 domain T42A 0.6 | SHP2 N-SH2 domain T52S 0.726 | [2] 0.809

HNVPIYEGFGL [ACTA1_Y168_A172G_YF]
inactive: SHP2 C-SH2 domain E139D 1.47 | [1] 0.898 | SHP2 N-SH2 domain L43F 1.34 | SHP2 N-SH2 domain T42A 1.1 | SHP2 N-SH2 domain T52S 1.11 | [2] 0.954

LTERSYSFVTT [ACTA1_Y200_G199S]
inactive: SHP2 C-SH2 domain E139D 0.775 | [1] 2.01 | SHP2 N-SH2 domain L43F 1.34 | SHP2 N-SH2 domain T42A 1.74 | SHP2 N-SH2 domain T52S 0.953 | [2] 1.21

RRNTFYASIAK [ACADM_Y353_YF]
inactive: SHP2 C-SH2 domain E139D 0.217 | [1] 0.156 | SHP2 N-SH2 domain L43F 0.321 | SHP2 N-SH2 domain T42A 0.277 | SHP2 N-SH2 domain T52S 0.228 | [2] 0.263

SLEKSYELPDG [ACTA1_Y242]
inactive: SHP2 C-SH2 domain E139D 0.586 | [1] 0.606 | SHP2 N-SH2 domain L43F 0.611 | SHP2 N-SH2 domain T42A 0.594 | SHP2 N-SH2 domain T52S 0.587 | [2] 0.651

NMSRIYSTTKV [ACE_Y151_A154T]
inactive: SHP2 C-SH2 domain E139D 0.772 | [1] 0.822 | SHP2 N-SH2 domain L43F 0.573 | SHP2 N-SH2 domain T42A 0.497 | SHP2 N-SH2 domain T52S 0.578 | [2] 0.866

PIFEGYGLPHA [ACTA1_Y171_A172G_YF]
inactive: SHP2 C-SH2 domain E139D 0.659 | [1] 0.689 | SHP2 N-SH2 domain L43F 0.748 | SHP2 N-SH2 domain T42A 0.644 | SHP2 N-SH2 domain T52S 0.544 | [2] 0.693

KEKLCYVALDF [ACTA1_Y220]
inactive: SHP2 C-SH2 domain E139D 1.16 | [1] 1.42
active: SHP2 N-SH2 domain L43F 8.88 | SHP2 N-SH2 domain T42A 10.2 | SHP2 N-SH2 domain T52S 7.81 | [2] 5.39

DDLTDYLMKIL [ACTA1_Y190_R185D]
inactive: SHP2 C-SH2 domain E139D 1.11 | [1] 1.11 | SHP2 N-SH2 domain L43F 1.18 | SHP2 N-SH2 domain T42A 0.882 | SHP2 N-SH2 domain T52S 1.15 | [2] 0.94

IHETTYNSIMK [ACTA1_Y281]
inactive: SHP2 C-SH2 domain E139D 0.828 | [1] 1.59 | SHP2 N-SH2 domain L43F 0.812 | SHP2 N-SH2 domain T42A 0.837 | SHP2 N-SH2 domain T52S 0.711 | [2] 1.03

SNKLTYGTVVF [ACOX1_Y275_M278V]
active: SHP2 N-SH2 domain L43F 5.53 | SHP2 N-SH2 domain T42A 5.03 | SHP2 N-SH2 domain T52S 6.31
inactive: SHP2 C-SH2 domain E139D 1.2 | [1] 2.42 | [2] 2.49

IHETTYKSIMK [ACTA1_Y281_N282K]
inactive: SHP2 C-SH2 domain E139D 1.11 | [1] 2.19 | SHP2 N-SH2 domain L43F 1.13 | SHP2 N-SH2 domain T42A 0.921 | SHP2 N-SH2 domain T52S 1.05 | [2] 0.989

LTELGYSFVTT [ACTA1_Y200_R198L]
inactive: SHP2 C-SH2 domain E139D 0.52 | [1] 2.34 | SHP2 N-SH2 domain L43F 1.75 | SHP2 N-SH2 domain T42A 2.71 | SHP2 N-SH2 domain T52S 0.952 | [2] 0.89

IIEDPYFGNDF [ACP1_Y132_S137F_YF]
inactive: SHP2 C-SH2 domain E139D 0.897 | [1] 0.942 | SHP2 N-SH2 domain L43F 0.843 | SHP2 N-SH2 domain T42A 0.993 | SHP2 N-SH2 domain T52S 0.976 | [2] 1.22

RRNTYYASIAK [ACADM_Y353]
inactive: SHP2 C-SH2 domain E139D 0.308 | [1] 0.253 | SHP2 N-SH2 domain L43F 0.234 | SHP2 N-SH2 domain T42A 0.0696 | SHP2 N-SH2 domain T52S 0.0731 | [2] 0.194

TLLERYGMTKI [ACSF3_Y355_E359K]
inactive: SHP2 C-SH2 domain E139D 1.21 | [1] 0.857 | SHP2 N-SH2 domain L43F 0.805 | SHP2 N-SH2 domain T42A 0.783 | SHP2 N-SH2 domain T52S 0.812 | [2] 1.01

IEDPYYGNDSD [ACP1_Y133]
inactive: SHP2 C-SH2 domain E139D 0.439 | [1] 0.558 | SHP2 N-SH2 domain L43F 0.523 | SHP2 N-SH2 domain T42A 0.591 | SHP2 N-SH2 domain T52S 0.562 | [2] 0.564
